ChEMBL document CHEMBL4888484, “Replenishing the malaria drug discovery pipeline: Screening and hit evaluation of the MMV Hit Generation Library 1 (HGL1) against asexual blood stage Plasmodium falciparum ,using a nano luciferase reporter read-out” (2022)
The campaign covered roughly 150,000 compounds. About 540 (0.36%) showed an effect of 50% or more. This is one part of the list.

Each compound was assayed on Plasmodium falciparum (assay: Primary screen in NF54 nanoGlo assay, in single point, at 2uM, 72h; a lower Z score goes with more inhibition). Settings: timepoint 72 hour.
Assay type: functional, Erythrocyte

Question: With `Cc1ncn(C[C@H](C)NC2CCCCC2)c1C` as the compound, how does the “% Inhibition” value read?
Answer: -12%

Question: And the Z score?
Answer: 1.59

Question: How did the “% Inhibition” value turn out when `CCc1cc(CN[C@@H](C)Cc2ccc(F)cc2)on1` was run?
Answer: -5%

Question: And the Z score?
Answer: 0.53

Question: What does the source list for `CC(C)(C)OC(=O)CN1CCC2(CCCCC2)C1`?
Answer: % Inhibition: -1%; Z score: 0.09

Question: For `COCc1nn(Cc2ccc(C#N)cc2Br)c(=O)o1`, which “% Inhibition” value is on record?
Answer: -14%

Question: And the Z score?
Answer: 1.2

Question: Which “% Inhibition” value does the source give for `CCc1ccc(CC)c(NC(=O)CC2CC3CCC(C2)N3)c1` (configuration not stated) here?
Answer: -33%

Question: And the Z score?
Answer: 3.85

Question: Which results are given for `CC[C@@H](Cn1ccnc1)NCc1ccc(Cl)o1`?
Answer: % Inhibition: -14%; Z score: 1.26

Question: Which “% Inhibition” value does the source give for `Cn1cccc1C(=O)C(Cl)(Cl)Cl` here?
Answer: 26%

Question: What about the Z score of the same compound?
Answer: -3.09

Question: What does the source list for `C[C@H](NC(=O)CN1CCCC1=O)C1=CCCCC1`?
Answer: % Inhibition: -5%; Z score: 0.97

Question: What does the source list for `CC(C)c1ncc(C(=O)N[C@H]2CN3CCC2CC3)cn1`?
Answer: % Inhibition: 2%; Z score: -0.19

Question: Which results are given for `Cc1cc(C)nc(NC(=O)C2C(C)(C)C2(C)C)n1`?
Answer: % Inhibition: -12%; Z score: 1.45

Question: For `Cc1ccccc1N(C(=O)c1nnn(C(C)(C)C)n1)c1nc2ccccc2s1`, which “% Inhibition” value is on record?
Answer: -3%

Question: What about the Z score of the same compound?
Answer: 0.61

Question: What does the source list for `O=C(CCC1CC1)N1CCC(c2c[nH]cn2)CC1`?
Answer: % Inhibition: 19%; Z score: -2.48

Question: What does the source list for `O=C(c1ccncc1)N1C[C@@H]2C[C@H](C1)c1ccc(-c3cccnc3)c(=O)n1C2`?
Answer: % Inhibition: 5%; Z score: -0.67

Question: How did the “% Inhibition” value turn out when `CCCc1cnc(C)nc1N1CCC2(CC1)CN[C@H](C(=O)O)C2` was run?
Answer: -6%

Question: What about the Z score of the same compound?
Answer: 0.74

Question: What does the source list for `Fc1cc2c(s1)C1(CCNCC1)OCC2`?
Answer: % Inhibition: -2%; Z score: 0.2

Question: With `O=C(CN1C[C@H](C(=O)O)[C@@H](c2ccc(F)cc2)C1)NCc1cccs1` as the compound, how does the “% Inhibition” value read?
Answer: -7%

Question: And the Z score?
Answer: 1.39

Question: Which “% Inhibition” value does the source give for `CCCn1ncc(C(=O)N[C@]2(C(=O)O)CCCc3ccccc32)c1C` here?
Answer: -3%

Question: And the Z score?
Answer: 0.52

Question: Which results are given for `Cc1n[nH]c(C)c1CNCCc1ccc2c(c1)OCCO2`?
Answer: % Inhibition: -1%; Z score: 0.23

Question: How did the “% Inhibition” value turn out when `O=C(CN1CCN(C(=O)Nc2ccccc2)CC1=O)N1CCC2(CC1)OCCO2` was run?
Answer: -7%

Question: And the Z score?
Answer: 1.4

Question: For `N#Cc1c(CN2CCC[C@]3(CC=CCC3)C2)cn2ccccc12`, which “% Inhibition” value is on record?
Answer: -9%

Question: What about the Z score of the same compound?
Answer: 0.73

Question: What does the source list for `O=C1NCCN2CCN(C(=O)Cc3ccc(Cl)cc3)CC[C@@H]12`?
Answer: % Inhibition: -4%; Z score: 0.74

Question: Which “% Inhibition” value does the source give for `O=c1ccc(-c2ccccc2F)c2n1C[C@H]1C[C@@H]2CN(Cc2ccc(F)cc2)C1` here?
Answer: 31%

Question: What about the Z score of the same compound?
Answer: -3.46

Question: How did the “% Inhibition” value turn out when `COc1cccc(CC(=O)N2CC(N3CC(F)(F)C[C@H]3CO)C2)c1` was run?
Answer: -6%

Question: And the Z score?
Answer: 0.75

Question: Which “% Inhibition” value does the source give for `CCCn1c(=O)oc2cc(NS(=O)(=O)c3ccc(C4CCCCC4)cc3)ccc21` here?
Answer: -11%

Question: What about the Z score of the same compound?
Answer: 1.41

Question: For `CCN(CC)CCN(C(=O)Cc1ccc2c(c1)OCO2)c1nc2c(C)c(C)ccc2s1`, which “% Inhibition” value is on record?
Answer: -3%

Question: What about the Z score of the same compound?
Answer: 0.29

Question: Which “% Inhibition” value does the source give for `O=C(O)[C@@]12COc3ccccc3[C@@H]1CN(Cc1cc(-c3ccccc3)no1)C2` here?
Answer: 8%

Question: What about the Z score of the same compound?
Answer: -1.36

Question: `O=C(c1cccc(Cl)c1)[C@H]1CCCN(Cc2cccc3c2OCO3)C1` was tested. Which “% Inhibition” value did it give?
Answer: -14%

Question: And the Z score?
Answer: 2.05

Question: How did the “% Inhibition” value turn out when `O=C(c1ccc2oc(=O)[nH]c2c1)N1CCCC[C@@]12CCOC2` was run?
Answer: -11%

Question: And the Z score?
Answer: 1.13

Question: For `O=C(Cc1ccccc1)N1CCN(CC2CC3C=CC2C3)CC1` (configuration not stated), which “% Inhibition” value is on record?
Answer: -12%

Question: And the Z score?
Answer: 1.55

Question: How did the “% Inhibition” value turn out when `CN1CC[C@@]2(CCCN(c3ccncc3F)C2)C1` was run?
Answer: -8%

Question: What about the Z score of the same compound?
Answer: 0.76

Question: For `C[C@]1(CNC(=O)Nc2cccc3[nH]c(=O)oc23)CCOC1`, which “% Inhibition” value is on record?
Answer: -14%

Question: And the Z score?
Answer: 2.75

Question: Which results are given for `C[C@@H](Cc1ccccc1F)NCC(F)(F)CO`?
Answer: % Inhibition: -7%; Z score: 1.04

Question: Which “% Inhibition” value does the source give for `CN1CCOC2CCN(C(=O)NCC(C)(C)c3ccncc3)CC21` (configuration not stated) here?
Answer: 1%

Question: And the Z score?
Answer: -0.17

Question: Which results are given for `NCCc1ccc(Br)cc1`?
Answer: % Inhibition: -11%; Z score: 1.26

Question: Which results are given for `CC(=O)c1cc(OC(=O)N2CCOCC2)ccc1OC(=O)N1CCOCC1`?
Answer: % Inhibition: 6%; Z score: -1.09

Question: Which “% Inhibition” value does the source give for `CC(C)N1C[C@H](CNC(=O)c2ccccn2)C2(CCCCC2)C1` here?
Answer: 3%

Question: What about the Z score of the same compound?
Answer: -0.48

Question: Which “% Inhibition” value does the source give for `CC(C)Cn1cncc1Cn1c(=O)[nH]c2ccccc21` here?
Answer: -1%

Question: What about the Z score of the same compound?
Answer: 0.18

Question: How did the “% Inhibition” value turn out when `COc1ccccc1[C@H]1CN(C(=O)[C@H]2CC[C@@H](O)CC2)[C@@H]2C3CCN(CC3)[C@H]12` was run?
Answer: -14%

Question: What about the Z score of the same compound?
Answer: 1.99

Question: Which results are given for `CC(C)N1CC[C@H](N2CCc3nccc(N)c3C2)C1=O`?
Answer: % Inhibition: 5%; Z score: -0.65

Question: For `CCc1cc(CN2C[C@H]3CC[C@@H](C2)N(CC=C(C)C)C3)on1`, which “% Inhibition” value is on record?
Answer: -10%

Question: What about the Z score of the same compound?
Answer: 1.24

Question: `CN1[C@@H]2CC[C@H]1CN(c1cccc(C#N)n1)CC2` was tested. Which “% Inhibition” value did it give?
Answer: -10%

Question: What about the Z score of the same compound?
Answer: 2.05

Question: With `CC(C)N1CCCN(C(=O)Cc2cscn2)CC1` as the compound, how does the “% Inhibition” value read?
Answer: -8%

Question: And the Z score?
Answer: 1.14

Question: Which “% Inhibition” value does the source give for `Cc1nc(CCNC2CC3CCC2C3)cs1` (configuration not stated) here?
Answer: -5%

Question: And the Z score?
Answer: 0.66

Question: `Cc1cnc(C(C)NC(C)Cn2cc(Br)cn2)s1` (configuration not stated) was tested. Which “% Inhibition” value did it give?
Answer: -11%

Question: And the Z score?
Answer: 1.5

Question: For `Cc1cccc(C)c1-n1nnnc1C1(NCCc2c(C)[nH]c3c(Cl)ccc(Cl)c23)CCCCC1`, which “% Inhibition” value is on record?
Answer: -8%

Question: And the Z score?
Answer: 1.42

Question: With `CC(=O)c1cc(CN(C)[C@@H](C)Cc2ccccn2)n(C)c1` as the compound, how does the “% Inhibition” value read?
Answer: -2%

Question: And the Z score?
Answer: 0.42

Question: `CN1C(=O)C([C@H]2c3ccccc3C(=O)N2Cc2ccccc2Cl)C(=O)N(C)C1=O` was tested. Which “% Inhibition” value did it give?
Answer: -1%

Question: And the Z score?
Answer: 0.07

Question: With `O=C(Cc1ccc(O)c(Cl)c1)N1CCN(CC2CCC2)CC1` as the compound, how does the “% Inhibition” value read?
Answer: -11%

Question: What about the Z score of the same compound?
Answer: 1.76

Question: `O=C(NC[C@]1(O)CN2CCC1CC2)c1cccc(C2CCC2)c1` was tested. Which “% Inhibition” value did it give?
Answer: -5%

Question: What about the Z score of the same compound?
Answer: 1.08

Question: What does the source list for `CCCCCC(C)NC(C)Cn1cccn1` (configuration not stated)?
Answer: % Inhibition: -13%; Z score: 1.95

Question: For `COCCn1c(C(=O)N[C@H]2CCOC(C)(C)C2)cc2cc(Cl)ccc21`, which “% Inhibition” value is on record?
Answer: 26%

Question: What about the Z score of the same compound?
Answer: -2.98

Question: How did the “% Inhibition” value turn out when `CCc1ccnc(C(=O)NC2CCOCC2N2CCCC2)c1` (configuration not stated) was run?
Answer: -9%

Question: And the Z score?
Answer: 1.07

Question: How did the “% Inhibition” value turn out when `CC(F)(F)CCN1C2CCC1CC(=O)C2` was run?
Answer: -8%

Question: What about the Z score of the same compound?
Answer: 0.99

Question: Which “% Inhibition” value does the source give for `c1cnc(-c2nc(CN3CCOC4CCCCC43)cs2)nc1` (configuration not stated) here?
Answer: -16%

Question: And the Z score?
Answer: 2.97

Question: For `O=C(C1CCOCC1)N1C[C@H](c2ccc3c(c2)OCO3)[C@@H]2[C@H]1C1CCN2CC1`, which “% Inhibition” value is on record?
Answer: -10%

Question: And the Z score?
Answer: 0.98

Question: Which results are given for `CCCc1c(C(=O)NCCN2CCOCC2)c(=O)cc(C)n1Cc1ccc2c(c1)OCO2`?
Answer: % Inhibition: 6%; Z score: -0.71
